This passage reports z-score results from PubChem BioAssay AID488969 (Vanderbilt High Throughput Screening Facility, 2010).

Over roughly 110,000 compounds, “z-score” has its median near -0.1; the highest 2% begin near 2. The list shows a part of the results. Calls of active or inactive are those of the source.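 Rule for the calls: active = z-score in the third read window above 3 or below -3; inactive = the rest.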

This test deals with Metabotropic glutamate receptor 8 (Rattus norvegicus) (UniProt P70579). In words: rat mGluR8 modulators via GIRK flux, primary screen, cell-based, thallium flux, HTS (AID 488969). The note with it: HEK293 rat mGluR8, GIRK (G protein-gated inwardly rectifying potassium channel) thallium flux, FluoZin2; at 10 µM; stronger effect = higher value; submaximal glutamate (EC20) added with thallium.
Sequence of UniProt P70579 (P70579 whole entry, looked up): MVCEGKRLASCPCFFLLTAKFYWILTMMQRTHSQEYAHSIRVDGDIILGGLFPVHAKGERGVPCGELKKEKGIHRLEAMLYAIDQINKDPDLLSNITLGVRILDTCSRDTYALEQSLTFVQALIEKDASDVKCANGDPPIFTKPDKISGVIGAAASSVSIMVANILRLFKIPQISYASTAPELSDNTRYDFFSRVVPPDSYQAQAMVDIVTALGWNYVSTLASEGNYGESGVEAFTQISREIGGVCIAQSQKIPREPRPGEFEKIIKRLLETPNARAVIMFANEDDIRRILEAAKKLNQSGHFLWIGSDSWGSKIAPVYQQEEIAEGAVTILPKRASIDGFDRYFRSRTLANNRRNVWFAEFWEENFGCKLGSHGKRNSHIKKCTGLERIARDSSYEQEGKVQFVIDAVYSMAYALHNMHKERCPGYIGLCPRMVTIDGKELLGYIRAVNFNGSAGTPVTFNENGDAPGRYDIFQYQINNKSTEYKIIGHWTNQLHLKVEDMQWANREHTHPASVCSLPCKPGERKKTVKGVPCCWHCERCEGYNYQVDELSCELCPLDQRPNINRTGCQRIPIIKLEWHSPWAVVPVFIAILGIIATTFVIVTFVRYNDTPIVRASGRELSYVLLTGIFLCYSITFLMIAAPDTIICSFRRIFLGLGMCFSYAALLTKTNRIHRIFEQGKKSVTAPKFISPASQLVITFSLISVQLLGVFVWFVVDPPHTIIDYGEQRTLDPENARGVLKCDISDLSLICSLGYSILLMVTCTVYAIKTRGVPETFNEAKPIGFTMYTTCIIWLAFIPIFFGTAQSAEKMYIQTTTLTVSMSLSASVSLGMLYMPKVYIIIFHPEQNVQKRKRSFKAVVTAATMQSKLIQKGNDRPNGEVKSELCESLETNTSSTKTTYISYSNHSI
For `CCOc1cc(S(=O)(=O)NCc2ccccn2)ccc1Cl`, the z-score turned out to be 0.361. In the case of `O=C(CN1C(=O)CCC1=O)Nc1nc(-c2ccc(Oc3ccccc3)cc2)cs1` it was -0.229. In the case of `CCCn1nnc2ccccc2c1=O`, the z-score was determined as 0.262. In the case of `CCCc1cc(=O)[nH]c(SCC(=O)N2CCN(c3ccccc3)CC2)n1` it was -0.562; in that of `CC(C)NC(=O)c1ccc(-c2ccccc2C(F)(F)F)o1`, -0.199. As to `C[N+]1(C2CCC3CCCC2C3O)CCCC1` (stereo unspecified), the z-score is -0.0417. To `O=C1c2ccccc2-c2c1nc1c([n+]2[O-])CCCC1` belongs -0.0761; to `O=[N+]([O-])c1ccccc1CNC(Cc1ccccc1)c1ccccc1` (stereo unspecified), -0.302. To `CN=Cc1sc2ccccc2c1O` belongs 0.0625. To `CN(CCC#N)C(=O)CSc1ncnc2sc(-c3ccccc3)cc12` belongs active: 8.2.

`COc1ccc(-c2ccc3c(N)c(C(=O)c4ccc(OC)c(OC)c4)sc3n2)cc1` returned a z-score of -0.324. `COC(=O)c1c(-c2ccccc2)csc1NC(=O)c1c(-c2ccccc2)noc1C` gave a z-score of 0.119. In the case of `Cc1cccc(NC(=O)CSc2nc3[nH]ncc3c(=O)[nH]2)c1` it was -0.381; in that of `O=C(CNS(=O)(=O)c1ccc(Cl)cc1)OCC(=O)N1CCCc2ccccc21`, -0.297. `COc1cccc(-c2cc(C(F)(F)F)nc(-n3cncn3)n2)c1` had a z-score of -0.1. As for `O=C(c1ccc(Cl)cc1)c1cnc(Nc2ccccc2)s1`, the z-score was 0.124. To `O=C(OCCN1CCN(c2ncc(C(F)(F)F)cc2Cl)CC1)c1ccc(Cl)cc1` belongs -0.0679; to `O=C1c2ccccc2NC(c2ccc(Cl)cc2Cl)N1Cc1ccccc1` (stereo unspecified), 0.145. In turn, `CN(C)c1nn(C(=O)Nc2cccc(C(F)(F)F)c2)cc1-c1ccccc1` registered a z-score of 0.254. In the case of `O=C(CN1CCN(C(=O)c2ccco2)CC1)Nc1ccc2c(c1)OCO2` it was 0.0955; in that of `COc1cc(CN2CCC(C(=O)NC3CCCC3)CC2)ccc1O`, 0.0633.

As for `CCOC(=O)c1sc(NC(=O)C(OC(C)=O)c2ccccc2)nc1C` (stereo unspecified), the z-score is -0.264.

Compound `COc1ccc(/C(O)=C2/C(=O)C(=O)N(Cc3cccnc3)C2c2ccncc2)cc1F` (stereo unspecified) came in with a z-score of 0.137. In the case of `CC1=NN(c2ccccc2)C(=O)/C1=C\C=C1/N(C)c2ccccc2C1(C)C` it was -0.533; in that of `CC(C)CN(C(=O)COC(=O)c1ccc([N+](=O)[O-])o1)C1CCS(=O)(=O)C1` (stereo unspecified), -0.467. In the case of `CN(C)c1cccc(C(=O)OCC(=O)Nc2ccccc2Sc2ccccc2)c1`, the z-score is -0.208. The compound `CC(=O)c1cc(C(c2csc(C(C)=O)c2)c2csc(C(C)=O)c2)cs1` gave a z-score of -0.0128. To `Cc1ccc2c(c1)N(C(=O)CSc1nncn1C)C(C)(C)c1ssc(=S)c1-2` belongs -0.0938; to `O=c1[nH]c(=O)n(CCc2ccc(F)cc2)c(O)c1C=NCc1ccc2c(c1)OCO2`, -0.144. In the case of `Cc1nn(Cc2n[nH]c(=S)n2Cc2ccccc2)c(C)c1Cl` it was 0.175; in that of `Cn1c(=O)c2cc(S(=O)(=O)NCCC(=O)NC3CCCCCC3)ccc2n(C)c1=O`, -0.269; in that of `O=C1CC(NC23CC4CC(CC(C4)C2)C3)C(=O)N1c1ccc2c(c1)OCO2` (stereo unspecified), 0.378. In the case of `COC(=O)c1c(NC(=O)COC(=O)c2ccc(C)s2)sc2c1CCCCC2` it was 0.122; in that of `COc1ccccc1CNC(=O)c1ccccc1OC`, -0.186. Consider `CCCc1cc(C(=O)NNC(=S)NC(C)c2ccccc2)cs1` (stereo unspecified), for which the z-score amounted to 0.211. In the case of `O=C(c1ccc(Cn2cc(Cl)cn2)o1)N1CCN(Cc2ccc3c(c2)OCO3)CC1` it was 0.247; in that of `Cc1ccc(C(=O)Nc2nnn(C)n2)cc1`, -0.309; in that of `N#Cc1c(SCc2ccccc2)sc(C(=O)c2ccccc2)c1N`, -0.149.

In turn, `O=S(=O)(Cc1ccccc1)NCc1cccnc1` registered a z-score of 0.705.

In turn, `O=c1sc(Nc2ccccc2)nc2ccsc12` returned a z-score of -0.965. To `C=CCc1cccc(OC)c1OCCOCCNCCO` belongs 0.46.

For `CN(C)c1ncnc2c1ncn2C1OC(CO)C(O)C1O` (stereo unspecified), the z-score was -0.162. To `O=C(NCCN1CCN(c2ccccc2)CC1)C1CCN(S(=O)(=O)N2CCOCC2)CC1` belongs -0.0498. `CC1(C)Oc2ccc3ccc(=O)oc3c2C(/C=N/O)C1=O` (stereo unspecified) returned a z-score of -0.123.

In turn, `N#Cc1c(C(F)(F)F)cc(-c2ccccc2)nc1SCC(=O)N1CCOCC1` showed a z-score of 0.167. In turn, `O=C(NCN1CCCCC1)c1cccnc1` came in with a z-score of -0.466. In the case of `Cc1c(C(=O)Nn2cnnc2)oc2ccccc12` it was -0.239. To `Cc1ccc(-n2c(Cc3ccccc3)n[nH]c2=S)cc1` belongs 0.0128; to `O=C(CCN1C(=O)c2ccccc2S1(=O)=O)Nc1nc2c(s1)CCCC2`, -0.477. To `S=C(NCc1ccco1)N1CCN(Cc2ccc(Cl)cc2Cl)CC1` belongs 0.101; to `Cc1nn(C)cc1CNC(=O)COc1ccc(Cl)cc1Cl`, -1.27. As for `COc1ccc(OC)c(C2C(C(=O)c3ccc(C)o3)=C(O)C(=O)N2CCCN2CCOCC2)c1` (stereo unspecified), the z-score amounted to 0.000947.

For the compound `CCOc1ccc(NC(=O)c2cc3cc4ccc(OC)cc4nc3o2)cc1`, the z-score worked out at 0.334. In the case of `CCCN(CC(=O)Nc1cccc(Br)c1)CC(=O)Nc1ccc(F)c(F)c1F` it was -0.131; in that of `CC12CC3(C)CC(C)(C1)CC(C(=O)Nc1nn[nH]n1)(C2)C3`, -0.174; in that of `S=c1[nH]ncn1/N=C/c1ccc(Br)cc1`, -0.0645.

Take `CN(CC(N)=O)S(=O)(=O)c1ccc(F)cc1`: the z-score is -0.00769.

In turn, `COc1ccc(CCNC(=O)CN2CCN(S(=O)(=O)c3ccc(Cl)cc3)CC2)cc1OC` came in with a z-score of -0.122. To `O=c1cc(CN2CCN(c3ccccc3F)CC2)c2cc3c(cc2o1)CCCC3` belongs -0.635; to `O=C(N/C=C\c1ccccc1)NCc1ccc(Cl)cc1Cl`, 0.0685.

With `CC1CCN(C(=O)CN(CCc2ccccc2)S(C)(=O)=O)CC1`, the z-score is -1.02. To `CCOC(=O)c1c(C2CCN(C(=O)OCC)CC2)nc2ccccn12` belongs -1.34; to `Cc1ccc(NC(=O)CSc2nc(=O)cc(N)n2-c2ccccc2)cc1`, -0.553. In the case of `CS(=O)(=O)N1CCN(c2ccccc2NC(=O)C(c2ccccc2)c2ccccc2)CC1` it was -0.00583; in that of `O=C(Nc1ccccc1C(F)(F)F)NC1CCCCCCC1`, 0.0591. In the case of `Brc1ccc(-c2nc(-c3ccccn3)no2)o1` it was -0.142; in that of `COc1ccccc1-c1cc(-c2ccccc2)nc(SC(C(N)=O)c2ccccc2)c1C#N` (stereo unspecified), -0.0167; in that of `CCOC(=O)c1c(C#N)c(SCC(=O)Nc2ccc(OC)cc2)nc2c1CN(CC)CC2`, -0.756. As for `COC(=O)C1=NN(C(=O)c2ccc(C)cc2)C(O)(c2ccc(Cl)cc2)C1` (stereo unspecified), the z-score is active: 8.48.

Take `CCOc1ccc(NC(=O)C2CCN(S(=O)(=O)c3cccnc3)CC2)cc1`: the z-score stood at 0.256.

In the case of `CN(NC(=O)C(C)(C)C)c1nc(-c2ccccc2)nnc1C(F)(F)F`, the z-score is -0.349.

Regarding `CCN(NC(=O)C(O)(c1ccccc1)c1ccccc1)C(=O)c1ccccc1`, the z-score amounted to 0.112. To `Cc1nc2ccccc2c(=O)n1/N=C/c1ccccn1` belongs 0.777; to `COc1cccc(/C=C/C(=O)c2c(O)cc(C)oc2=O)c1O`, -0.722. To `Cc1ccc(-c2cc(C(F)F)n3ncc(C(=O)Nc4ccc(S(=O)(=O)Nc5ccccc5C)cc4)c3n2)cc1` belongs -0.423; to `Cc1c(NC(=O)C2CCCO2)cccc1[N+](=O)[O-]` (stereo unspecified), 0.0386; to `CC(C1CC1)N(Cc1ccccc1)C(=S)Nc1cccc(C(F)(F)F)c1` (stereo unspecified), 0.103. Consider `CS(=O)(=O)N1CCCC(C(=O)NCCc2ccc(Cl)cc2)C1` (stereo unspecified), for which the z-score is -0.676. To `Cc1cc(C)c2ccc(C)[n+]([O-])c2c1O` belongs -0.0291; to `CCOC(=O)c1ccc(NC(=O)CN2C(=O)C(CC)SC(CC)C2=O)cc1` (stereo unspecified), 1.35.

`COC(=O)c1ccccc1NC(=O)CSc1nnc(-c2cccc(NC(C)=O)c2)n1C`: the z-score was -1.41. As to `Cc1nnc(-c2cnn(-c3ccccc3)c2N)n1Cc1ccncc1`, the z-score is -0.125.

`O=C(Cc1ccc(-n2cccc2)cc1)NCc1ccccc1Cl`: the z-score was -0.262. To `CC(c1ccccc1)C1CC(=O)N(C2CCCCC2)C1=O` (stereo unspecified) belongs 1.21; to `Cc1ccc(C(=O)Nc2ccc3c(c2)OCO3)cc1S(=O)(=O)N1CCCC1`, -0.613.

Consider `Cc1cccc(C(=O)N[C@H](C(=O)Nc2cc(S(=O)(=O)N3CCCCC3)ccc2C)C(C)C)c1`, for which the z-score is -0.375. In the case of `CCNc1nc(Oc2ccc(Cl)cc2Cl)cc(C(F)(F)F)n1` it was -0.068; in that of `COCCn1nnnc1C(c1cccc(OC)c1OC)N1CCN(C2CCCCC2)CC1` (stereo unspecified), -0.0491; in that of `Cc1ccc(SCCNC(=O)c2ccc(C)c(S(=O)(=O)Nc3ccccc3C)c2)cc1`, -0.0879. In turn, `COc1ccc(CN2CC(C(=O)NCC3CCCO3)CC2=O)cc1` (stereo unspecified) returned a z-score of -0.17. `CC1CCCC(C(=O)OCc2ccccc2)N1` (stereo unspecified) returned a z-score of 0.267. Compound `CCN(CC)S(=O)(=O)c1ccc(Cl)c(C(=O)NC2CCCC2)c1` showed a z-score of 0.272. In the case of `Cc1onc(-c2ccccc2Cl)c1C(=O)OCC(=O)c1ccc2c(c1)OCCO2` it was -0.959; in that of `CCN(CC(=O)N1CCN(C)CC1)S(=O)(=O)c1ccc(Cl)cc1`, -0.0769.

Turning to `Cc1cc(NS(=O)(=O)c2ccc(NC(=O)CN3C(=O)c4ccccc4C3=O)cc2)nc(C)n1`, the z-score was found to be 0.763. To `CCS(=O)(=O)N1CCC(C(=O)N2CCc3ccccc3C2)CC1` belongs -0.393. The compound `CC1CN(Cc2nc3c(c(=O)n(C)c(=O)n3C)n2CC(=O)c2ccccc2)CC(C)O1` (stereo unspecified) showed a z-score of 0.0268. In the case of `Cn1cnnc1SCC(=O)Nc1ccc2c(c1)CCC2` it was 0.0373; in that of `Cc1csc(NC(=O)CSc2nnc(-c3ccc(Cl)cc3)n2N)n1`, -0.145. To `CCCSc1nsc(N)n1` belongs -0.215; to `O=[N+]([O-])c1ccc(COc2cccc(CNc3ccc(F)cc3)c2)cc1`, 0.0807. Compound `CCN(CC)c1ccc(/C=N/N2CCN(Cc3ccc(C)cc3)CC2)c(O)c1` gave a z-score of -0.258. To `CCN(CC)C(=S)NC(=O)c1ccc(Cl)cc1Cl` belongs 2.95; to `NC(=O)CCS(=O)(=O)CCN1CCCCC1`, 0.0272; to `CCOc1ccc(CNC(=O)c2ccc(Sc3ccc(C)cc3)c(NC(C)=O)c2)cc1`, -0.148. Consider `CC(=O)c1cccc(NC(=O)c2cc(-c3ccc(F)cc3)on2)c1`, for which the z-score is -0.286. To `NC(=O)c1sc2nc3c(c(-c4cccnc4)c2c1N)CCC3` belongs 0.964; to `Cc1ccc(C)c(NC(=O)Cn2c([N+](=O)[O-])cnc2C)c1`, -0.109. To `CCOC(=O)C1CCCN(C(=O)CC(C)c2ccccc2)C1` (stereo unspecified) belongs -0.335; to `O=C(NC1CCCc2ccccc21)c1ccc(CNc2c(N3CCOCC3)c(=O)c2=O)cc1` (stereo unspecified), -0.316; to `O=C(NCCCO)NC12CC3CC(CC(C3)C1)C2`, -0.299.
